Measurements taken from the supplement of paper PMC9911699.
The other results are listed elsewhere or left out.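 The calls were made as follows: active = average curve height above 101 Omnilog units; inactive = average height at or below 101.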 Repeats are few or missing, and single values can be far off.

Tests used:
[1] = tested on: Acinetobacter baumannii AB6870155; experiment: respiration area under curve on compound as sole carbon source (Biolog PM, 48 h) (arbitrary Omnilog units x h (AUC)); higher = more carbon source utilisation / respiration; conditions: Biolog inoculating fluid, temperature: 37 °C
[2] = tested on: Klebsiella pneumoniae KP6870155; experiment: as above; conditions: Biolog inoculating fluid, temperature: 37 °C

Compound | respiration area under curve [1] | respiration area under curve [2]
CC(O)CC(=O)O (stereo not drawn) [Beta-Hydroxy Butyric Acid] | active: 11400 | active: 10900
OCC1(O)OC[C@@H](O)[C@@H](O)[C@H]1O (stereo partly drawn) [D-Psicose] | inactive: 2970 | active: 10800
N[C@@H](CCO)C(=O)O [L-Homoserine] | inactive: 1240 | inactive: 3200
OCC(O)CO [Glycerol] | inactive: 1420 | active: 10300
CC(=O)N[C@H]1C(O)O[C@H](CO)[C@H](O)[C@@H]1O (stereo partly drawn) [N-Acetyl-D-Galactosamine] | inactive: 2000 | inactive: 4160
O=C(O)C[C@H](O)C(=O)O [L-Malic Acid] | active: 11600 | active: 11200
OC[C@H]1O[C@@H]2O[C@H]3[C@H](O)[C@@H](O)[C@@H](O[C@H]4[C@H](O)[C@@H](O)[C@@H](O[C@H]5[C@H](O)[C@@H](O)[C@@H](O[C@H]6[C@H](O)[C@@H](O)[C@@H](O[C@H]7[C@H](O)[C@@H](O)[C@@H](O[C@H]8[C@H](O)[C@@H](O)[C@@H](O[C@H]9[C@H](O)[C@@H](O)[C@@H](O[C@H]1[C@H](O)[C@H]2O)O[C@@H]9CO)O[C@@H]8CO)O[C@@H]7CO)O[C@@H]6CO)O[C@@H]5CO)O[C@@H]4CO)O[C@@H]3CO [Gamma-Cyclodextrin] | inactive: 2090 | inactive: 4540
C[C@@H](O)[C@H](O)[C@H](O)[C@@H](O)C=O [D-Fucose] | inactive: 3590 | inactive: 4230
COC(=O)C(C)=O [Methyl Pyruvate] | active: 11200 | active: 10500
NCCCC(=O)O [Gamma-Amino Butyric Acid] | active: 11200 | active: 10900
CO[C@H]1O[C@H](CO)[C@@H](O)[C@H](O)[C@H]1O [Alpha-Methyl-D-Glucoside] | inactive: 1580 | inactive: 4820
COC(=O)[C@@H](C)O [D-Lactic Acid Methyl Ester] | active: 8930 | active: 10600
O=C(O)CC(CC(=O)O)C(=O)O [Tricarballylic Acid] | active: 10500 | inactive: 4010
NCCO [2-Aminoethanol] | inactive: 3330 | inactive: 5150
C[C@H](O)[C@@H](N)C(=O)O [D-Threonine] | inactive: 1690 | inactive: 3520
CC(=O)N[C@H]1[C@H]([C@H](O)[C@H](O)CO)OC(O)(C(=O)O)C[C@@H]1O (stereo partly specified) [N-Acetyl-Neuraminic Acid] | inactive: 1540 | inactive: 3550
O=C1OC(C(O)CO)C(O)C1O [D-Galactonic Acid-gamma-Lactone] | inactive: 1480 | active: 12100
OC[C@H]1O[C@@H](O)[C@H](O)[C@H](O)[C@@H]1O [Beta-D-Allose] | inactive: 3040 | inactive: 3110
O=C(O)CCC(=O)C(=O)O [Alpha-Keto-Glutaric Acid] | active: 9920 | inactive: 3470
OC[C@H]1O[C@H](O)[C@H](O)[C@@H](O)[C@@H]1O [Alpha-D-Glucose] | active: 9030 | active: 10800
OC[C@H]1O[C@H](O[C@H]2[C@H](O)[C@@H](O)[C@H](O)O[C@@H]2CO)[C@H](O)[C@@H](O)[C@@H]1O [Maltose] | inactive: 1860 | active: 11400
OC[C@@H](O)C(O)[C@H](O)CO [D-Arabitol] | inactive: 1610 | active: 12300
O=C(CO)[C@@H](O)[C@H](O)[C@@H](O)C(=O)O [5-Keto-D-Gluconic Acid] | inactive: 3000 | inactive: 5190
OC[C@@H](O)[C@H](O)[C@H](O)[C@@H](O)CO [Dulcitol] | inactive: 2300 | active: 11500
O=C(O)C(O)C(O)C(=O)O (stereo unspecified) [m-Tartaric Acid] | inactive: 1430 | inactive: 3430
OC[C@H]1O[C@@](CO)(O[C@H]2O[C@H](CO)[C@@H](O)[C@H](O)[C@H]2O)[C@@H](O)[C@@H]1O [Sucrose] | inactive: 1730 | active: 11700
OC[C@@H](O)[C@@H](O)[C@H](O)[C@@H](O)CO [D-Sorbitol] | inactive: 1690 | active: 10700
CC(=O)C(C)=O [2,3-Butanedione] | inactive: 1780 | inactive: 2590
